# Measurements taken from article PMC11321632, “SIRT5‐Mediated Desuccinylation of RAB7A Protects Against Cadmium‐Induced Alzheimer's Disease‐Like Pathology by Restoring Autophagic Flux” (Advanced Science, 2024).
# T1: Sirtuin 5 (SIRT5), recombinant mouse protein (mouse, UniProt Q8K2C6 37-310)
# T1 construct: Sirtuin 5 (SIRT5), mouse, recombinant; Made and measured by a contract laboratory (TopScience); source: 293F cells, purified
# T1 sequence (looked up): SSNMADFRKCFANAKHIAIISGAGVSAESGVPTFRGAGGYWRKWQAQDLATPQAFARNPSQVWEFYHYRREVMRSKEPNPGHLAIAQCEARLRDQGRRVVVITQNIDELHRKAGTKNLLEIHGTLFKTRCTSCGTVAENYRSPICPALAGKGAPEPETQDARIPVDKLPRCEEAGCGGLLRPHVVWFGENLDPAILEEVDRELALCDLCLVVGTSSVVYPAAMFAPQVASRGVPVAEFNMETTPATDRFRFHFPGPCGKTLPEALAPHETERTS
# Biological target: T1, Sirtuin 5 (SIRT5), recombinant mouse …
# Assay: MST; Monolith NT.115 (NanoTemper); recombinant mouse proteins purified from 293F cells; which partner was labelled is not told
# Conditions: both partners purified
binder,measurement,value
"Lysosomal Ras-associated protein 7a (RAB7A), recombinant mouse protein (natural protein, Ras-associated protein 7a (RAB7A), mouse, recombinant; Made and measured by a contract laboratory (TopScience); source: 293F cells, purified) not shown",Kd,~1.43 nM
